# Experimental data from the antibiotic and cytotoxicity screens of Wong et al. (2023).
# The other results are listed elsewhere or left out.
# Tested on: HSkMC (human skeletal muscle cells)
# Test: cytotoxicity call (relative viability < 0.9)
# Settings: 10 µM
row,SMILES,cytotoxicity call
1,COc1ccc(NC(=O)N(C)C[C@H]2OCCCC[C@H](C)Oc3ccc(NS(=O)(=O)c4ccc(F)cc4)cc3C(=O)N([C@@H](C)CO)C[C@H]2C)cc1,inactive
2,C[C@H](CO)N1C[C@H](C)[C@@H](CN(C)C(=O)CCCN(C)C)OCCCC[C@H](C)Oc2ccc(NC(=O)Nc3ccc(C(F)(F)F)cc3)cc2C1=O,inactive
3,Cc1noc(C)c1S(=O)(=O)Nc1ccc2c(c1)C(=O)N([C@@H](C)CO)C[C@H](C)[C@@H](CN(C)C(=O)Nc1cccc3ccccc13)OCCCC[C@H](C)O2,inactive
4,COc1ccc2c3c([nH]c2c1)[C@@H](CO)N(Cc1ccc(cc1)Cl)C[C@]13CCN(CCc2ccccc2)CC1,active
5,CN(C)C(=O)C[C@@H]1CC[C@@H]2[C@H](COC[C@@H](O)CN2S(=O)(=O)c2ccccc2)O1,inactive
6,C[C@H]1CCCCO[C@H](CN(C)C(=O)Nc2ccc(F)cc2)[C@@H](C)CN([C@@H](C)CO)C(=O)c2cc(NC(=O)Nc3ccccc3)ccc2O1,inactive
7,C[C@@H]1CN([C@@H](C)CO)C(=O)c2cc(NC(=O)Nc3ccc(C(F)(F)F)cc3)ccc2O[C@H]1CN(C)Cc1ccccc1,active
8,COc1cccc(S(=O)(=O)N(C)C[C@@H]2Oc3cc(C4=CCCC4)ccc3S(=O)(=O)N([C@H](C)CO)C[C@H]2C)c1,inactive
9,C[C@@H]1CCCCO[C@H](CN(C)C(=O)Cc2ccccc2)[C@H](C)CN([C@@H](C)CO)C(=O)c2cc(NC(=O)c3ccccc3)ccc2O1,inactive
10,Cc1ccc(S(=O)(=O)Nc2ccc3c(c2)CC(=O)N([C@H](C)CO)C[C@H](C)[C@@H](CN(C)C(=O)Nc2ccc(C(F)(F)F)cc2)O3)cc1,inactive
11,C[C@@H](NC(=O)C[C@@H]1C=C[C@@H](NC(=O)CN2CCOCC2)[C@@H](CO)O1)c1ccccc1,inactive
12,Cc1noc(C)c1NC(=O)N(C)C[C@@H]1Oc2ccc(NC(=O)CCN3CCOCC3)cc2C(=O)N([C@H](C)CO)C[C@H]1C,inactive
13,C[C@H](CO)N1C[C@H](C)[C@H](CN(C)C(=O)C2CCCCC2)OCCCC[C@H](C)Oc2ccc(NS(=O)(=O)c3cccs3)cc2C1=O,inactive
14,O=C(O)CC(O)(CC(=O)O)C(=O)O.[LiH].[LiH].[LiH],inactive
15,C[C@@H]1CCCCO[C@@H](CN(C)C(=O)Nc2ccc(C(F)(F)F)cc2)[C@H](C)CN([C@H](C)CO)C(=O)c2cc(NC(=O)Nc3ccc(F)cc3)ccc2O1,inactive
16,Cc1cc2nc(C(=O)NC[C@H]3CCCS(=O)(=O)C3)cc(-c3ccccc3Cl)c2c(C)c1-c1ccncc1,inactive
17,CCCOc1ccc(=O)n(C)n1,inactive
18,NCc1ccc(-c2ncccn2)cc1,inactive
19,C[C@@H]1CN([C@@H](C)CO)C(=O)c2cccc(NS(=O)(=O)c3ccc(F)cc3)c2O[C@H]1CN(C)S(=O)(=O)c1ccc(F)cc1,inactive
20,C=C[C@](C)(CC[C@@]1(C)[C@H](C)C[C@H](O[C@@H]2O[C@@H](C)[C@H](O)[C@@H](O[C@@H]3O[C@H](CO[C@@H]4O[C@@H](C)[C@H](O)[C@@H](O)[C@H]4O)[C@@H](O)[C@H](O)[C@H]3O)[C@H]2O)[C@@]2(C)C(C)=CCC[C@H]12)O[C@@H]1OC[C@H](O)[C@H](O)[C@H]1O[C@@H]1O[C@@H](C)[C@H](O)[C@@H](O)[C@H]1O,inactive
21,C[C@H]1CN([C@@H](C)CO)C(=O)Cc2cc(NS(=O)(=O)c3ccccc3)ccc2O[C@H]1CN(C)Cc1ccc(C(=O)O)cc1,inactive
22,COc1ccc(NC(=O)Nc2ccc3c(c2)C(=O)N([C@@H](C)CO)C[C@H](C)[C@@H](CN(C)S(=O)(=O)c2ccc(F)cc2)OCCCC[C@H](C)O3)cc1,inactive
23,O=C(CNc1ccc2c(c1)oc1ccccc12)c1ccc(F)cc1,inactive
24,C[C@H]1CN([C@@H](C)CO)C(=O)Cc2cc(NC(=O)C3CC3)ccc2O[C@@H]1CN(C)C(=O)Nc1ccccc1,inactive
25,C[C@@H]1CCCCO[C@@H](CN(C)C(=O)Nc2ccccc2)[C@H](C)CN([C@H](C)CO)C(=O)c2cc(NC(=O)NC3CCCCC3)ccc2O1,inactive
26,C[C@@H]1CN([C@@H](C)CO)C(=O)Cc2cc(NS(=O)(=O)c3cn(C)cn3)ccc2O[C@@H]1CN(C)Cc1ccncc1,inactive
27,OCCN(CCO)c1nc2ccccc2[nH]1,inactive
28,CCCNC(=O)[C@@]1(Sc2ccc(C)cc2)CC(=O)N(Cc2ccccc2C(F)(F)F)[C@@H]1c1ccc(CO)cc1,inactive

# Tested on: HepG2
# Test: cytotoxicity call (relative viability < 0.9)
# Settings: 10 µM
row,SMILES,cytotoxicity call
1,COC(=O)C(=C1OC(=O)C(c2ccccc2)=C1O)c1ccccc1,inactive
2,CC(C)NC(=O)N(C)C[C@@H]1Oc2ccc(NC(=O)Cc3ccccc3)cc2CC(=O)N([C@H](C)CO)C[C@H]1C,inactive
3,Cc1noc(C)c1S(=O)(=O)N(C)C[C@H]1Oc2c(NC(=O)C3CCOCC3)cccc2C(=O)N([C@H](C)CO)C[C@H]1C,inactive
4,O.OCC1OC(OC2C(CO)OC(O)C(O)C2O)C(O)C(O)C1O (configuration not stated),active
5,COc1ccc(S(=O)(=O)N[C@H]2C=C[C@@H](CC(=O)N3CCN(c4ccccc4)CC3)O[C@H]2CO)cc1,inactive
6,COc1ccc(S(=O)(=O)N(C)C[C@@H]2Oc3cc(C#CC4CCCC4)ccc3S(=O)(=O)N([C@H](C)CO)C[C@@H]2C)cc1,inactive
7,COc1ccc(S(=O)(=O)Nc2ccc3c(c2)C(=O)N([C@@H](C)CO)C[C@@H](C)[C@@H](CN(C)C(=O)NC(C)C)O3)cc1,inactive
8,C=C1C2CCC3(C)C(c4ccoc4)OC(=O)CC13OC1CC(=O)C(C)(C)C(C(O)C(=O)OC)C12C (configuration not stated),inactive
9,C[C@@H]1CN([C@H](C)CO)C(=O)c2cccc(NS(=O)(=O)c3ccccc3)c2O[C@H]1CN(C)S(=O)(=O)c1cccs1,inactive
10,COCC(=O)N(C)C[C@@H]1Oc2cc(-c3ccc(C#N)cc3)ccc2S(=O)(=O)N([C@@H](C)CO)C[C@H]1C,inactive
11,CC(=N)NCCCC[C@H](N)C(=O)O,inactive
12,C[C@H](CO)N1C[C@H](C)[C@@H](CN(C)S(=O)(=O)c2ccc(F)cc2)Oc2ccc(NC(=O)Cn3cnnn3)cc2CC1=O,inactive
13,COc1ccc(NC(=O)N(C)C[C@H]2OCCCC[C@H](C)Oc3ccc(NS(=O)(=O)c4ccc(F)cc4)cc3C(=O)N([C@@H](C)CO)C[C@H]2C)cc1,inactive
14,C[C@H](CO)N1C[C@H](C)[C@@H](CN(C)C(=O)CCCN(C)C)OCCCC[C@H](C)Oc2ccc(NC(=O)Nc3ccc(C(F)(F)F)cc3)cc2C1=O,inactive
15,Cc1noc(C)c1S(=O)(=O)Nc1ccc2c(c1)C(=O)N([C@@H](C)CO)C[C@H](C)[C@@H](CN(C)C(=O)Nc1cccc3ccccc13)OCCCC[C@H](C)O2,inactive
16,COc1ccc2c3c([nH]c2c1)[C@@H](CO)N(Cc1ccc(cc1)Cl)C[C@]13CCN(CCc2ccccc2)CC1,active
17,CN(C)C(=O)C[C@@H]1CC[C@@H]2[C@H](COC[C@@H](O)CN2S(=O)(=O)c2ccccc2)O1,inactive

row,SMILES,cytotoxicity call
1,C[C@H]1CCCCO[C@H](CN(C)C(=O)Nc2ccc(F)cc2)[C@@H](C)CN([C@@H](C)CO)C(=O)c2cc(NC(=O)Nc3ccccc3)ccc2O1,inactive
2,C[C@@H]1CN([C@@H](C)CO)C(=O)c2cc(NC(=O)Nc3ccc(C(F)(F)F)cc3)ccc2O[C@H]1CN(C)Cc1ccccc1,inactive
3,COc1cccc(S(=O)(=O)N(C)C[C@@H]2Oc3cc(C4=CCCC4)ccc3S(=O)(=O)N([C@H](C)CO)C[C@H]2C)c1,inactive
4,C[C@@H]1CCCCO[C@H](CN(C)C(=O)Cc2ccccc2)[C@H](C)CN([C@@H](C)CO)C(=O)c2cc(NC(=O)c3ccccc3)ccc2O1,inactive
5,Cc1ccc(S(=O)(=O)Nc2ccc3c(c2)CC(=O)N([C@H](C)CO)C[C@H](C)[C@@H](CN(C)C(=O)Nc2ccc(C(F)(F)F)cc2)O3)cc1,inactive
6,C[C@@H](NC(=O)C[C@@H]1C=C[C@@H](NC(=O)CN2CCOCC2)[C@@H](CO)O1)c1ccccc1,inactive
7,Cc1noc(C)c1NC(=O)N(C)C[C@@H]1Oc2ccc(NC(=O)CCN3CCOCC3)cc2C(=O)N([C@H](C)CO)C[C@H]1C,inactive
8,C[C@H](CO)N1C[C@H](C)[C@H](CN(C)C(=O)C2CCCCC2)OCCCC[C@H](C)Oc2ccc(NS(=O)(=O)c3cccs3)cc2C1=O,inactive
9,O=C(O)CC(O)(CC(=O)O)C(=O)O.[LiH].[LiH].[LiH],inactive
10,C[C@@H]1CCCCO[C@@H](CN(C)C(=O)Nc2ccc(C(F)(F)F)cc2)[C@H](C)CN([C@H](C)CO)C(=O)c2cc(NC(=O)Nc3ccc(F)cc3)ccc2O1,active
11,Cc1cc2nc(C(=O)NC[C@H]3CCCS(=O)(=O)C3)cc(-c3ccccc3Cl)c2c(C)c1-c1ccncc1,inactive
12,CCCOc1ccc(=O)n(C)n1,inactive
13,NCc1ccc(-c2ncccn2)cc1,inactive
14,C[C@@H]1CN([C@@H](C)CO)C(=O)c2cccc(NS(=O)(=O)c3ccc(F)cc3)c2O[C@H]1CN(C)S(=O)(=O)c1ccc(F)cc1,inactive
15,C=C[C@](C)(CC[C@@]1(C)[C@H](C)C[C@H](O[C@@H]2O[C@@H](C)[C@H](O)[C@@H](O[C@@H]3O[C@H](CO[C@@H]4O[C@@H](C)[C@H](O)[C@@H](O)[C@H]4O)[C@@H](O)[C@H](O)[C@H]3O)[C@H]2O)[C@@]2(C)C(C)=CCC[C@H]12)O[C@@H]1OC[C@H](O)[C@H](O)[C@H]1O[C@@H]1O[C@@H](C)[C@H](O)[C@@H](O)[C@H]1O,inactive
16,C[C@H]1CN([C@@H](C)CO)C(=O)Cc2cc(NS(=O)(=O)c3ccccc3)ccc2O[C@H]1CN(C)Cc1ccc(C(=O)O)cc1,inactive
17,COc1ccc(NC(=O)Nc2ccc3c(c2)C(=O)N([C@@H](C)CO)C[C@H](C)[C@@H](CN(C)S(=O)(=O)c2ccc(F)cc2)OCCCC[C@H](C)O3)cc1,inactive
